Experimental data reported in ChEMBL document CHEMBL4888484, “Replenishing the malaria drug discovery pipeline: Screening and hit evaluation of the MMV Hit Generation Library 1 (HGL1) against asexual blood stage Plasmodium falciparum ,using a nano luciferase reporter read-out” (2022).
Among all 150,000 compounds or so, about 540 (0.36%) showed an effect of 50% or more. The list shows a part of the results.

test system: Plasmodium falciparum; assay: Primary screen in NF54 nanoGlo assay, in single point, at 2uM, 72h; a lower Z score goes with more inhibition; type: functional, Erythrocyte; conditions: timepoint 72 hour

Row | SMILES | % Inhibition | Z score
1 | CCc1nsc(N2CCC[C@H]2c2ncc(Br)cn2)n1 | 4% | -0.71
2 | CCN=C(N)N1CCN(c2ncc(Br)c(OC)n2)CC1 | -13% | 1.12
3 | CCN1CCC[C@@]2(CCN(c3ncc(C(=O)O)cc3Cl)C2)C1=O | -11% | 1.86
4 | Cc1cccc(-c2noc(-c3ccc4c(=O)n(Cc5ccccc5F)c(=O)[nH]c4c3)n2)c1 | 14% | -1.6
5 | CC(C)[C@H](NC(=O)c1ccccc1F)C(=O)NC1CC(N2CCCCC2)C1 (stereo partly drawn) | -6% | 0.73
6 | Cc1cc(C)nc(N2CCC[C@H](CCC(=O)N3CCN(c4ccccn4)CC3)C2)n1 | -8% | 1.06
7 | Cc1cccn2c(CN3CCC(O)CC3)c(C(=O)N3CCCCC3)nc12 | 1% | -0.25
8 | CC(C)(CC(F)F)C(=O)N1CCCCO1 | 0% | -0.03
9 | O=C(O)[C@@]1(Cc2ccccc2F)CCCN(c2cnccn2)C1 | -11% | 1.91
10 | CC1CN(CCc2ccncc2)CCN1CC(O)c1ccccc1 (stereo not drawn) | -13% | 1.08
11 | CC(C)c1n[nH]c2c1CN(C(=O)c1c[nH]nc1-n1cnnn1)CC2 | -6% | 1.23
12 | O=C1C[C@H](NC(=O)C(c2ccccc2)c2ccccc2)CN1 | -8% | 1.43
13 | Cc1nnc(C(=O)NCCC2=CCCC2)s1 | -12% | 1.56
14 | N#CC1(c2ccccc2)c2ccccc2C(=O)c2ccccc21 | 34% | -4.35
15 | Cc1nc(C)c(-c2ccc(C(=O)N[C@H]3CCCNC3=O)cc2)[nH]1 | 12% | -1.52
16 | Cc1nccc(NC(=O)N(Cc2ccoc2)C2CC2)n1 | -3% | 0.6
17 | Cc1ccc([C@@H]2Cn3nc(C(=O)Nc4ccc(C(N)=O)cc4)cc3CO2)cc1 | -7% | 0.88
18 | CCN1C[C@@H](NC(=O)N(Cc2ccsc2)C2CCCCC2)CC1=O | -16% | 1.59
19 | O=C(Nc1ccncc1)N(Cc1ccccc1)C1CCCCC1 | 3% | -0.36
20 | COc1ccc(CCNC(=O)c2cnn3c4c(cnc23)C[C@@H](C)CC4)cc1OC | 61% | -4.54
21 | Cn1ccnc1C(=O)c1cccc(NC(=O)CCn2cnnn2)c1 | -10% | 1.57

Row | SMILES | % Inhibition | Z score
22 | O=C(C1CC=CCC1)N1CCCC1c1cccc(F)c1 (stereo not drawn) | -15% | 1.48
23 | O=C(NCCc1nnc2ccccn12)NCC1CCCC1 | -16% | 3.08
24 | COc1ccc(-c2noc3nc(C4CC4)cc(C(=O)Nc4cc(C)n(Cc5ccccc5F)n4)c23)cc1 | 26% | -2.95
25 | COc1ccc([C@H](C)NC(=O)N2CC3(C2)CS(=O)(=O)C3)cc1 | -13% | 2.78
26 | CCC1CCC(CNC(=O)[C@H](C)NC(N)=O)CC1 (stereo partly drawn) | -8% | 1.44
27 | CS(=O)(=O)CCc1ccc(N[C@H]2CCc3ccccc3C2)cc1 | -9% | 1.37
28 | O=C(Cc1ccc(F)cc1)Nc1c(C(=O)N2CCC(N3CCCCC3)CC2)oc2ccccc12 | -1% | 0.23
29 | CNC(=O)[C@H]1CN(C(=O)Nc2ccc(C)cc2Cl)CC12CCCC2 | 4% | -0.53
30 | COc1ccccc1CN(C1CC1)S(=O)(=O)CC1(C#N)CCCC1 | 4% | -0.45
31 | CCCc1n[nH]cc1C(=O)N1CCC2(CC1)CC(=O)N(Cc1ccccc1)C2 | 0% | 0.03
32 | CCn1cc(CN(C)C(=O)c2cc(C(C)C)cc(C(C)C)c2O)cn1 | -14% | 1.92
33 | Cc1ccc(S(N)(=O)=O)c(C(=O)NC[C@H](C)N2CCCCC2=O)c1 | 30% | -3.82
34 | CC[C@H](NC(=O)CN1CCCCCC1)c1ccc(C)cn1 | -6% | 1.12
35 | Cn1ccc2cc(C(=O)Nc3ccc4c(c3)C(=O)N3CCC[C@H]3C(O)=N4)ccc21 | 9% | -1.14
36 | CCNc1cc(N2CCN(C(=O)CCCc3ccccc3)CC2)nc(C)n1 | -13% | 2.25
37 | Nc1nc(N2CCCOCC2)c2cc(C(=O)O)ccc2n1 | -10% | 1.15
38 | Cc1ccnn1CC(=O)N(C)Cc1csc(-c2cccs2)n1 | -1% | 0.19
39 | c1nc(CCNC[C@@H]2CCCN3CCCC[C@H]23)c[nH]1 | -15% | 2.93
40 | O=C(OC[C@H]1CCCCN1)N1CCCCCC1 | -5% | 0.55
41 | CCN(CC)C(=O)c1nc(CNC(=O)C(C)(C)C)oc1C | -12% | 1.55
42 | CCC[C@]1(COC)CCCN1Cc1nc(-c2ccoc2)no1 | 7% | -0.85

Row | SMILES | % Inhibition | Z score
43 | CN(C[C@@H]1OCCc2ccccc21)C(=O)Cc1cscn1 | -12% | 1.5
44 | Cn1cc(C(=O)N2CC(=O)Nc3ccccc3[C@@H]2c2ccccc2)ccc1=O | -12% | 1.62
45 | CN(C[C@H]1CCOC1)c1ncc(S(=O)(=O)NCCCF)cc1C(F)(F)F | -6% | 1.29
46 | Cc1ccc(-n2c(CN3CCN(C(=O)NCc4ccc(F)cc4)CC3)nc3cccnc32)cc1 | -3% | 0.42
47 | O=C(CNS(=O)(=O)c1ccc(Cl)c(C(F)(F)F)c1)NCC1(N2CCOCC2)CCCCC1 | 1% | -0.1
48 | CCc1ccc(S(=O)(=O)N2CCC3(CC2)NCCN=C3NCc2cccc(OC)c2)cc1 | 5% | -0.83
49 | CC(=O)Nc1ncncc1N1CCC(C(=O)NCc2ccccc2C(F)(F)F)CC1 | -4% | 0.77
50 | Cc1n[nH]c(-c2ccc(S(=O)(=O)N3CCN(Cc4ccccc4)CC3)s2)c1C | -2% | 0.45
51 | O=S1(=O)CCCN1C1CCN(c2nc(C(F)(F)F)cs2)CC1 | 0% | 0.08
52 | CCCC1CCCN(C(C)c2nnc(-c3cccs3)o2)CC1 (stereo not drawn) | -9% | 1.23
53 | CCOc1ccc(C(=O)NCCc2cc(C)n(C)n2)cc1 | -5% | 0.95
54 | O=C(c1csc2ccccc12)N1CC[C@H](Nc2ncccn2)[C@@H](O)C1 | -6% | 1.06
55 | CC(C)(C)c1noc([C@@H](c2ccccc2)n2cccn2)n1 | -8% | 1.35
56 | CCNC(=O)[C@@](C)(NS(=O)(=O)c1cccs1)C(F)(F)F | -3% | 0.41
57 | CCCCn1nc(C)nc1CCCn1cccn1 | 2% | -0.28
58 | COc1ccc(CNC(=O)[C@]2(C)Cn3cnc(C(=O)Nc4ccc(Cl)cn4)c3C(=O)N2C2CC2)cc1 | -9% | 0.89
59 | CCn1nc(C(C)C)cc1-c1nc(CC(N)=O)nn1CC(C)(C)O | -5% | 0.61
60 | COC(=O)c1nccc2c(S(=O)(=O)NCC(C)(C)C[C@H](C)O)cccc12 | -9% | 0.91
61 | CCOc1cccc(CN(CCO)C(=O)N[C@@H](C)C(=O)N(C)C)c1 | -27% | 3.52
62 | CCc1cnc(N)nc1NC[C@H](C)Oc1cccnc1 | -6% | 1.04
63 | COc1cccc(CNC(=O)CCc2nc(N3CCC(C)CC3)c3c(C)noc3n2)c1 | -3% | 0.41

Row | SMILES | % Inhibition | Z score
64 | Cc1cc(C(=O)N2CC(C)OC(C)C2)c(C)n1C(C)C (stereo not drawn) | -8% | 1.06
65 | O=C1C[C@H](NC2CCC(C(F)(F)F)CC2)CN1CC(F)(F)F (stereo partly drawn) | 0% | 0.04
66 | Cc1c(Cl)cc(C(=O)N2CC[C@@H]3CNC[C@@H]32)cc1Cl | -6% | 0.67
67 | CCC(CC)N(Cc1ccccc1F)C(=O)c1ccc2c(c1)ncn2CCO | -5% | 0.68
68 | NCc1cc(Br)ccc1F | -2% | 0.16
69 | Cc1sc2ncnc(N3CCc4nocc4C3)c2c1C | -10% | 1.82
70 | Cc1nc(C)c(C)c(N(C)Cc2cnn(-c3ccccc3)c2)n1 | 7% | -1.03
71 | Cc1ccc(CN(C)C(=O)[C@H]2CCc3ccccc3C2)o1 | -9% | 0.94
72 | CN1CCCC2CN(c3nc4ccccc4[nH]3)CCC21 (stereo not drawn) | -7% | 0.82
73 | CN(C)C(=O)CO[C@H]1COCC[C@@H]1NC(=O)c1ccc(F)c(Cl)c1 | -15% | 2.52
74 | Cc1c(Cl)cccc1CNC(=O)CC[C@@H]1NC(=O)NC1=O | -22% | 2.22
75 | COC(=O)C1CCN(C(=O)c2cc(NC(=O)CC3CCCC3)cc3nc([C@@H]4CCCO4)n(C)c23)CC1 | -14% | 1.88
76 | CCCC1(CNC(=O)N2CCOCC2)CC1 | -6% | 0.69
77 | Nc1nc(CCC(=O)N[C@H]2CC[C@@H]3CCC[C@@H]32)cs1 | -8% | 0.95
78 | Cc1ccc(Cc2nc(N3CCCN(C(=O)CCc4ccccc4)CC3)c3cnn(-c4ccccc4)c3n2)cc1 | 32% | -0.91
79 | COC(=O)[C@H](CC(C)C)N(C)C(=O)c1ccn(C)n1 | -7% | 1.43
80 | Cc1ccc(C[C@H](NC(=O)Cc2ccc(C)nc2)c2ccccn2)cc1 | 5% | -0.61
81 | O=C1COc2ccc(S(=O)(=O)N3CCc4ccccc43)c3c2N1CCC3 | -7% | 0.73
82 | Cc1oc2ccccc2c1CNS(=O)(=O)CCC1CCC1 | -3% | 0.48
83 | O=C(c1cc(S(=O)(=O)N2CCCCC2)cs1)N1CCOCC1 | -24% | 2.75
84 | CCc1[nH]nc(-c2cccs2)c1NC(=O)c1ccccc1OC | -7% | 1.03
